# Patent publication US6887983B2, “Purified 20 kDA presenilin 2 C-terminal fragment and methods of screening for compounds that inhibit proteolysis of presenilin 2” (The General Hospital Corporation, priority 1997, dated 2005)
# Where a SMILES comes first, the peptide text is derived from it. [ ]: non-standard residue; d: D form. The star is where a group is joined. Sta = CC(C)C[C@H](N)[C@@H](O)CC(=O)O; Isovaleryl = CC(C)CC(=O)*
# Tested on: degradation of PS2
# Assay: Degradation and turnover of PS2 in tetracycline-inducible PS2-expressing H4 cells, Western blot of detergent-soluble/resistant fractions
# Type: cell-based, human
# Conditions: cell-permeable protease inhibitors; inducible PS2 H4 cells
# Experimental: The H4 founder cells were transfected with 10 μg of each construct and 1 μg of pCNH2hygro, conferring resistance to hygromycin. Hygromycin-resistant colonies were isolated in the presence of tetracycline and screened for PS2 expression by Western blot analysis using antibodies against the FLAG epitope-tag upon removal of tetracycline. […] For induction of PS2, cells were washed five times with prewarmed phosphate-buffered saline to retrieve residual tetracycline and then incubated with complete media without tetracycline for the indicated hours.
# Cells were fractionated into detergent-soluble and resistant fractions with CSK buffer (10 mM PIPES (pH 6.8), 100 mM NaCl, 2.5 mM MgCl2, 1 mM CaCl2, 0.3 M sucrose, 1% Triton X-100, 1 mM phenylmethysulfonyl fluoride, 1 μg/ml aprotinin, 1 μg/ml chymostatin, 1 μg/ml leupeptin, 1 μg/ml pepstatin A) (Papadopoulos, V., and Hall, P. F., J. Cell. Biol. 108:553-567(1989)). Cells were washed with ice-cold phosphate-buffered saline and incubated in CSK buffer for 5 min on ice with gentle rocking. The supernatant (detergent-soluble fraction) was collected, and the insoluble structure that remained on the dish was collected, washed one with CSK buffer, and used as detergent-insoluble fraction. The resulting detergent-resistant pellet which consists primarily of cytoskeletal proteins was further incubated with DNase (300 μg/ml) (Papadopoulos, V., and Hall, P. F., J. Cell. Biol. 108:553-567 (1989); Hamaguchi, M., and Hanafusa, H., Proc. Natl. Acad. Sci. USA 84:2312-2316 (1987); Osborn, M., and Weber, K., Exp. Cell Res. 106:339-349 (1977)).
# Protein samples were quantiated by the BCA protein assay kit (Pierce). SDS-PAGE was carried out using 4-20% gradient Tris-glycine gels under reducing conditions. Proteins were transferred to polyvinylidene difluoride membrane (Bio-Rad) using a semi-dry electrotransfer system (Hoefer). The blots were blocked with 5% non-fat dry milk in TBST (25 mM Tris (pH 7.6), 137 mM NaCl, 0.15% Tween 20) for 1.5 h, incbated primary antibodies (M2, 3 μg/ml; D-8, 1 to 1000; polyclonal anti-ubiquitin, 1 to 1000; Ubi-1, 1 to 1500) for 1.5 h, and secondary antibodies (horseradish perodixase-conjugated anti-mouse or rabbit antibodies, 1 to 5000) in TBST. Between steps, the blots were washed with TBST for 30 min. For Western blotting with M2 antibodies, 5% (w/v) non-fat dry milk was included in the incubation steps for primary and secondary antibodies. The blot was visualized using the ECL Western blot detection system (Amersham). […]
row,Compound,turnover of the PS2-CTF
1,CC(=O)N[C@@H](CC(C)C)C(=O)N[C@@H](CC(C)C)C(=O)N[C@H](C=O)CCCNC(=N)N [leupeptin],None of these protease inhibitors affected the turnover of the PS2-CTF
2,CC(C)CC(=O)N[C@H](C(=O)N[C@H](C(=O)N[C@@H](CC(C)C)[C@@H](O)CC(=O)N[C@@H](C)C(=O)N[C@@H](CC(C)C)[C@@H](O)CC(=O)O)C(C)C)C(C)C [pepstatin A] (Isovaleryl-VV[Sta]A[Sta]-OH),None of these protease inhibitors affected the turnover of the PS2-CTF
3,CC(C)C[C@H](NC(=O)[C@H]1O[C@@H]1C(=O)O)C(=O)NCCCCN=C(N)N [E-64],None of these protease inhibitors affected the turnover of the PS2-CTF
4,Cl.NCCc1ccc(S(=O)(=O)F)cc1 [Pefabloc SC],None of these protease inhibitors affected the turnover of the PS2-CTF
